Assay results published in PubChem BioAssay (NCI).
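Test compounds were applied to cells in 96-well plates for 48 hours at 5 doses. GI50 marks 50% less growth.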 For part of its entries the source gives two or more results. This is not the full list of results. There may be further records. For some assays here: A record mostly stands for its own series of concentrations, not given here; some values may only mark the edge of a range. For some assays here: Values given together are repeats across runs, samples, wells, individuals or studies. What stands in brackets tells the records apart. Letters count within one entry.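 At the TGI there is no net growth.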

Legend:
Test in all cases: NCI tumour cell line growth inhibition, 48 h
SNB-75 CNS = system: SNB-75 CNS
SR leukemia = system: SR leukemia
HOP-18 NSCLC = system: HOP-18 NSCLC
786-0 renal = system: 786-0 renal
PC-3 prostate = system: PC-3 prostate
LOX IMVI melanoma = system: LOX IMVI melanoma
HL-60(TB) leukemia = system: HL-60(TB) leukemia
HCT-116 colon = system: HCT-116 colon
HOP-62 NSCLC = system: HOP-62 NSCLC
OVCAR-3 ovarian = system: OVCAR-3 ovarian
NCI/ADR-RES ovarian = system: NCI/ADR-RES ovarian
SF-295 CNS = system: SF-295 CNS
A549 NSCLC = system: A549 NSCLC
KM12 colon = system: KM12 colon
MALME-3M melanoma = system: MALME-3M melanoma
OVCAR-8 ovarian = system: OVCAR-8 ovarian
SK-OV-3 ovarian = system: SK-OV-3 ovarian
XF 498 CNS = system: XF 498 CNS
HT29 colon = system: HT29 colon
HCT-15 colon = system: HCT-15 colon
SK-MEL-5 melanoma = system: SK-MEL-5 melanoma
MDA-MB-231 breast = system: MDA-MB-231 breast
SNB-78 CNS = system: SNB-78 CNS
SNB-19 CNS = system: SNB-19 CNS
M14 melanoma = system: M14 melanoma
UACC-62 melanoma = system: UACC-62 melanoma
IGROV1 ovarian = system: IGROV1 ovarian
CCRF-CEM leukemia = system: CCRF-CEM leukemia
NCI-H226 lung = system: NCI-H226 lung
P388 leukemia = system: P388 leukemia
SN12K1 renal = system: SN12K1 renal
SW-620 colon = system: SW-620 colon
MOLT-4 leukemia = system: MOLT-4 leukemia
RPMI-8226 leukemia = system: RPMI-8226 leukemia
MCF7 breast = system: MCF7 breast
K-562 leukemia = system: K-562 leukemia

**Q.** How did the TGI (SNB-75 CNS) turn out when `CC[C@@]1(O)C[C@H](OC2CC(N(C)C)C(OC3CC(O)C(OC4CCC(=O)C(C)O4)C(C)O3)C(C)O2)c2c(cc3c(c2O)C(=O)c2c(O)cccc2C3=O)[C@H]1C(=O)OC` (some centres undefined) was run?
**A.** Its TGI is 9.68 nM [mean of 4 tests] and 256 nM [mean of 6 tests] and 61.4 nM [mean of 7 tests].

**Q.** What about the GI50 (SR leukemia) of the same compound?
**A.** The GI50 was 22.5 nM [1 test] and 3.12 nM [mean of 3 tests] and 1.6 nM [mean of 6 tests].

**Q.** What about the TGI (SR leukemia) of the same compound?
**A.** Its TGI is 225 µM [1 test] and 8.34 nM [mean of 3 tests] and 109 nM [mean of 6 tests].

**Q.** And the GI50 (HOP-18 NSCLC)?
**A.** Its GI50 is 132 nM [mean of 2 tests] and 7.67 nM [mean of 3 tests].

**Q.** For `COc1cc(/C=C2\CCC/C(=C\c3cc(OC)c(O)c(OC)c3)C2=O)cc(OC)c1O`, which TGI (786-0 renal) is on record?
**A.** Its TGI is 3.91 µM and > 100 µM.

**Q.** What about the TGI (PC-3 prostate) of the same compound?
**A.** The TGI was 75 µM and 7.14 µM.

**Q.** And the TGI (LOX IMVI melanoma)?
**A.** Its TGI is 75 µM and 3.78 µM.

**Q.** What about the TGI (HL-60(TB) leukemia) of the same compound?
**A.** The TGI was 75 µM and 4.75 µM.

**Q.** And the TGI (HCT-116 colon)?
**A.** The TGI was 2.88 µM and > 100 µM.

**Q.** And the TGI (HOP-62 NSCLC)?
**A.** The TGI was 4.34 µM and > 100 µM.

**Q.** And the TGI (OVCAR-3 ovarian)?
**A.** The TGI was 2.59 µM and > 100 µM.

**Q.** And the TGI (NCI/ADR-RES ovarian)?
**A.** The TGI was 75 µM and 5.87 µM.

**Q.** And the TGI (SF-295 CNS)?
**A.** The TGI was 5.38 µM and > 100 µM.

**Q.** What about the TGI (A549 NSCLC) of the same compound?
**A.** Its TGI is 5.67 µM and > 100 µM.

**Q.** Which results are given for `COc1cc(/C=C\c2ccc(C)cc2)cc(OC)c1OC`?
**A.** TGI (KM12 colon): 787 nM and > 59.2 µM; TGI (SNB-75 CNS): 82.4 µM [1 test] and 310 nM [mean of 2 tests]; TGI (MALME-3M melanoma): 455 nM and 55.2 µM; TGI (OVCAR-8 ovarian): 176 nM and 11.6 µM; TGI (SK-OV-3 ovarian): 257 nM and > 100 µM; TGI (XF 498 CNS): 55.8 nM and 27.5 µM; TGI (HT29 colon): 135 nM and 6.82 µM; TGI (HCT-15 colon): 417 nM and > 57.2 µM; TGI (HCT-116 colon): 253 nM and > 100 µM; TGI (SK-MEL-5 melanoma): 697 nM and 12.2 µM; TGI (SF-295 CNS): 81 µM [1 test] and 49 nM [mean of 2 tests]; TGI (MDA-MB-231 breast): 246 nM and > 100 µM; TGI (SNB-78 CNS): 0.291 nM and > 100 µM; TGI (SNB-19 CNS): 385 nM and > 100 µM; TGI (M14 melanoma): 72.9 nM and > 60.7 µM; TGI (UACC-62 melanoma): 259 nM and > 85.6 µM

**Q.** For `CCCC(=O)Nc1cc(C(=O)N2C[C@@H]3C[C@]34C2=CC(=O)c2[nH]cc(C)c24)n(COC)c1`, which TGI (IGROV1 ovarian) is on record?
**A.** The TGI was 32.7 µM and 3.24 µM.

**Q.** What about the TGI (CCRF-CEM leukemia) of the same compound?
**A.** Its TGI is 2.5 µM and 26.8 µM.

**Q.** `[Cl][Pt+2][Cl].[NH-]C1CCCCC1[NH-]` (centres undefined) was tested. Which GI50 (NCI-H226 lung) did it give?
**A.** Its GI50 is 9.45 µM [sample A, 1 test] and 1.77 µM [sample B, 1 test] and 95.4 nM [sample C, 1 test].

**Q.** What about the TGI (NCI-H226 lung) of the same compound?
**A.** The TGI was 50.8 µM [sample A, 1 test] and 35.1 µM [sample B, 1 test] and 3.68 µM [sample C, 1 test].

**Q.** And the GI50 (P388 leukemia)?
**A.** Its GI50 is 635 nM [sample A, mean of 2 tests] and 158 nM [sample B, mean of 2 tests] and 42.9 nM [sample C, mean of 2 tests].

**Q.** What about the GI50 (OVCAR-8 ovarian) of the same compound?
**A.** The GI50 was 11.3 µM [sample A, mean of 2 tests] and 2.02 µM [sample B, mean of 2 tests] and 328 nM [sample C, mean of 2 tests].

**Q.** What about the GI50 (HT29 colon) of the same compound?
**A.** The GI50 was 7.01 µM [sample A, mean of 2 tests] and 975 nM [sample B, mean of 2 tests] and 265 nM [sample C, mean of 2 tests].

**Q.** What about the GI50 (SN12K1 renal) of the same compound?
**A.** Its GI50 is > 53.3 µM [sample A, mean of 2 tests] and 18.2 µM [sample B, mean of 2 tests] and 1.76 µM [sample C, mean of 2 tests].

**Q.** And the GI50 (SW-620 colon)?
**A.** The GI50 was 2.75 µM [sample A, mean of 2 tests] and 689 nM [sample B, mean of 2 tests] and 103 nM [sample C, mean of 2 tests].

**Q.** What about the GI50 (MOLT-4 leukemia) of the same compound?
**A.** The GI50 was 3.15 µM [sample A, mean of 2 tests] and 708 nM [sample B, mean of 2 tests] and 138 nM [sample C, mean of 2 tests].

**Q.** And the GI50 (RPMI-8226 leukemia)?
**A.** Its GI50 is 2.51 µM [sample A, mean of 2 tests] and 702 nM [sample B, mean of 2 tests] and 71.3 nM [sample C, mean of 2 tests].

**Q.** And the GI50 (HCT-116 colon)?
**A.** The GI50 was 10.4 µM [sample A, mean of 2 tests] and 2.03 µM [sample B, mean of 2 tests] and 238 nM [sample C, mean of 2 tests].

**Q.** And the GI50 (MCF7 breast)?
**A.** The GI50 was 3.21 µM [sample A, mean of 2 tests] and 3.43 µM [sample B, 1 test] and 317 nM [sample C, mean of 2 tests].

**Q.** And the GI50 (K-562 leukemia)?
**A.** Its GI50 is 15.4 µM [sample A, 1 test] and 3.85 µM [sample B, 1 test] and 419 nM [sample C, 1 test].
